Assay results: PubChem BioAssay AID588855 (National Center for Advancing Translational Sciences (NCATS), 2011)
Among all 410,000 compounds or so, about 5,000 (1.2%) were called active. The shares of active, inactive and inconclusive entries below differ from those in the screen. Calls come from the whole dose curve; as a rule, active = well fitted inhibition curve with a large enough effect; inconclusive = small, poorly fitted or top-dose-only effect; inactive = no such curve, though single readings can be large or run the other way. Where the call is inconclusive, the potency comes from a doubtful curve fit.

Test: qHTS for Inhibitors of TGF-b; note: nearly all actives have a fitted effect of over 65% in size
Details: HepG2 CAGA-GFP TGF-b/SMAD3 reporter, GFP fluorescence, 18 h, TGF-beta stimulated, 500 pg/mL final; series mostly up to 46.1 µM
In short: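 HEPG2 CAGA-GFP cells (1000/well, DMEM with 1% FBS) were pre-incubated 2 h at 37 degrees C, given compound by pin tool, then stimulated with TGF-beta at 500 pg/mL final for 18 h before per-cell GFP fluorescence imaging.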
Potency is the fitted concentration of half-maximal effect; tags give direction and shape of the fitted curve.

Compound | Potency
CCn1c(COc2ccccc2C)nnc1SCC(=O)NCc1ccccc1 | inconclusive: 11.2 µM [inhibitor, partial curve, poor fit]
CC(C)OCCCNC(=O)Cn1c(-c2cccs2)cc2cc(F)ccc21 | inconclusive: 17.8 µM [inhibitor, single point]
CCN(Cc1nc2ccccc2c(=O)[nH]1)C(=O)c1cccc(NC(=O)c2cccs2)c1 | inconclusive: 35.5 µM [inhibitor, partial curve, poor fit]
Clc1ccc(CSc2nnc(Cn3cnc4ccccc43)o2)cc1 | inactive
Cc1ccnc(NC(=O)CSc2ccc3c(c2)OCCO3)c1 | inconclusive: 12.6 µM [inhibitor, single point]
S=c1nc2ccccc2c2nc(-c3ccccc3Cl)[nH]n12 | inconclusive: 0.316 µM [inhibitor, full curve, poor fit]
COC(=O)C1=C(C)OC(N)=C(C#N)C1c1cc(OC)ccc1OC (stereo unspecified) | inconclusive: 0.501 µM [inhibitor, full curve]
Nc1nc(-c2ccco2)nn1C(=O)c1ccc(Cl)cc1 | inconclusive: 35.5 µM [inhibitor, single point]
C=CCOCCN(C)C1=NS(=O)(=O)c2cc([N+](=O)[O-])ccc21 | inconclusive: 35.5 µM [inhibitor, single point]
Cc1cc(NS(=O)(=O)c2ccc(NC(=O)COc3ccc(Cl)c(C)c3)cc2)no1 | inactive
Cc1ccc(S(=O)(=O)N2CCN(c3cccc(C)c3)CC2)cc1 | inconclusive: 12.6 µM [inhibitor, single point]
COc1ccc(/C=N/n2cnnc2SCc2ccccc2)cc1 | inconclusive: 6.31 µM [inhibitor, single point]
COc1ccccc1CNC(=O)c1ccc(CS(=O)(=O)c2ccccc2OC)o1 | inconclusive: 35.5 µM [inhibitor, single point]
COC(=O)[C@@]1(Cc2ccccc2)[C@H]2C(=O)N(C)C(=O)[C@H]2[C@H]2CN=C(SCC3CC3)N21 | inconclusive: 1.78 µM [inhibitor, full curve, poor fit]
CC1=C(c2ccccc2)[N+](=O)C2(CCCC2)N1[O-] | inactive
O=C(CCS(=O)(=O)c1ccccc1)Nc1ccccc1N1CCOCC1 | inconclusive: 22.4 µM [inhibitor, single point]
COc1ccc(/C=C2/SC(=S)N(CCCC(=O)Nc3ccccc3C(=O)O)C2=O)cc1 | inactive
CC(O)(c1ccc(F)c(F)c1)c1nc(-c2ccncc2)cs1 (stereo unspecified) | inconclusive: 35.5 µM [inhibitor, single point]
CCCN1C(C)C(C(=O)OCC)=CN(Cc2ccc(Br)cc2)S1(=O)=O (stereo unspecified) | inconclusive: 35.5 µM [inhibitor, single point]
CN1C(=O)NC(c2ccccc2Cl)C2=C1CC(C)(C)CC2=O (stereo unspecified) | inactive
CCc1ccc(CNC(=O)c2cc3c(C)nc4ccccc4c3o2)cc1 | inconclusive: 17.8 µM [inhibitor, partial curve, poor fit]
Cc1ccc(C)c(NC(=O)CSc2n[nH]c(-c3ccncc3)n2)c1 | inconclusive: 25.1 µM [inhibitor, single point]

Compound | Potency
CN(C)c1ccc(NC(=S)c2ccccn2)cc1 | inconclusive: 5.62 µM [inhibitor, full curve]
O=C(Nc1ncc(Cc2cccc(Cl)c2)s1)c1ccc([N+](=O)[O-])cc1 | inconclusive: 5.62 µM [inhibitor, single point]
COCCNC(=O)c1sc2nc3n(c(=O)c2c1C)CCC3 | inconclusive: 3.98 µM [inhibitor, single point]
Cc1ccc(NC(=S)N/N=C/c2ccc(OCCC(C)C)cc2)c(C)c1 | inconclusive: 20 µM [inhibitor, single point]
CCOC(=O)Cc1csc(NC(=O)/C=C/c2ccc(Br)o2)n1 | inconclusive: 2 µM [inhibitor, full curve]
CCN(CC)CCCNC(=O)c1ccc2c(c1)NC(=O)C(CS(=O)(=O)Cc1ccc(F)cc1Cl)N2 (stereo unspecified) | inactive
Nc1c(Cl)cc(-c2[nH]c3cc(C(=O)NCCO)ccc3c(=O)c2O)cc1Cl | inconclusive: 35.5 µM [inhibitor, single point]
Cc1ccc(C(=O)C(C)OC(=O)CCN=C2NS(=O)(=O)c3ccccc32)cc1 (stereo unspecified) | inactive
CCCCNC(=O)C1(C)CCCCN1C(=O)c1ccno1 (stereo unspecified) | inactive
COc1cc(C2C3=C(CCCC3=O)Nc3[nH]n(-c4ccccc4)c(=O)c32)cc(OC)c1OC (stereo unspecified) | inconclusive: 35.5 µM [inhibitor, partial curve, poor fit]
COc1cc(=O)[nH]c(SCC(=O)Nc2nc3c(s2)CCCC3)n1 | inconclusive: 3.16 µM [inhibitor, single point]
O=C(NCc1ccccn1)C(=O)NCC1OCCN1C(=O)c1ccc(Cl)cc1 (stereo unspecified) | inconclusive: 6.31 µM [inhibitor, single point]
Cc1cccc(Oc2nc(-c3ccncc3)nc3ccccc23)c1 | inconclusive: 11.2 µM [inhibitor, single point]
Cc1ccc(C(c2cc(Cl)c3cccnc3c2O)N2CCN(C)CC2)cc1 (stereo unspecified) | inconclusive: 12.6 µM [inhibitor, single point]
CCN(C(=O)C1CCCN(c2nc(-c3ccc(OC)cc3)no2)C1)c1ccc(OC)cc1 (stereo unspecified) | inconclusive: 31.6 µM [inhibitor, single point]
CCC(CO)n1cnnc1-c1ccncc1 (stereo unspecified) | inactive
COc1ccc(C2=NN(C)C(=NCc3ccccc3)SC2)cc1 | inactive
CCN(CC(=O)Nc1ccc(OC)cc1)C(=O)c1cccc(S(=O)(=O)N2CCN(c3ccccc3)CC2)c1 | inconclusive: 35.5 µM [inhibitor, single point]
COc1ccc(-c2noc(CNC(=O)c3ccc(OC)cc3OC)n2)cc1 | inconclusive: 35.5 µM [inhibitor, single point]
CCC1=Nc2cc(C(=O)N3CCC(C)CC3)ccc2Sc2ccc(C)cc21 | inconclusive: 22.4 µM [inhibitor, single point]
C=C1CCN(C(Cc2ccccc2)C(=O)N2CCOCC2)S(=O)(=O)c2ccccc21 (stereo unspecified) | inactive
CC(C)=CCc1c(-c2ccc(O)cc2O)oc2c3c(cc(O)c2c1=O)OC(C)(C)C=C3 | inconclusive: 22.4 µM [inhibitor, single point]

Compound | Potency
COc1ccc(-c2sc3ccc(N4CCOCC4)cc3c2C#CCO)cc1 | inconclusive: 11.2 µM [inhibitor, partial curve, poor fit]
CCCC(=O)OCc1cnc(C)c2oc(=O)c(C(=O)Nc3ccc(F)cc3C)cc12 | inactive
OCCCCNCc1ccc(OCc2ccc(Cl)cc2Cl)cc1 | inconclusive: 22.4 µM [inhibitor, single point]
Cc1ccc(NC(=O)Cn2nc(-c3ccc(Cl)cc3)c3ccccc3c2=O)cc1 | inactive
CN(C(=O)c1cccc(NC(=O)Cc2ccc(NC(=O)C3CCCN(C(=O)C4CCC4)C3)cc2)c1)C1CCCCC1 (stereo unspecified) | inactive
O=C(Nc1ccccc1Cl)c1cc(C2CCCCN2C(=O)c2ccccc2)on1 (stereo unspecified) | inconclusive: 35.5 µM [inhibitor, single point]
O=[N+]([O-])c1cccc(-c2n[nH]c(=S)n2Cc2ccccc2)c1 | inconclusive: 0.112 µM [inhibitor, full curve, poor fit]
O=[N+]([O-])c1ccc(N2CCSCC2)cc1 | inactive
COc1ccccc1C(CNC(=O)CNC(=O)c1ccc(Cl)c(Cl)c1)N1CCCC1 (stereo unspecified) | inconclusive: 0.562 µM [inhibitor, full curve, poor fit]
COc1cc(NS(=O)(=O)c2ccc3c(c2)OCC(C(=O)N2CCCC2)O3)cc(OC)c1 (stereo unspecified) | inconclusive: 15.8 µM [inhibitor, single point]
COc1cc2nc(C3CCC3)nc(N3CCN(c4ccccc4OC)CC3)c2cc1OC | inconclusive: 25.1 µM [inhibitor, single point]
CCC(Sc1nc2n[nH]c(C)c2c(=N)n1-c1ccc(Br)cc1)C(=O)N(CC)CC (stereo unspecified) | inconclusive: 22.4 µM [inhibitor, single point]
O=C1/C(=C\c2ccc(O)cc2)SC(=S)N1Cc1ccccc1 | inconclusive: 35.5 µM [inhibitor, single point]
COc1ccccc1C(=O)n1nc(C)cc1C | inconclusive: 35.5 µM [inhibitor, partial curve, poor fit]
Cc1ccc(OCc2cn3cccnc3n2)cc1 | inconclusive: 2.82 µM [inhibitor, partial curve, poor fit]
CCN(CC)c1ccc(NC(=O)C2CCCN(S(=O)(=O)c3ccc4c(c3)oc(=O)n4C)C2)c(C)c1 (stereo unspecified) | inactive
CC(=O)N1CCc2cc(C(=O)CN3CCC(C)CC3)ccc21 | inactive
CCOC(=O)C1=C(C)N(Cc2ccccc2)C(=O)NC1c1ccccc1OS(=O)(=O)c1ccccc1[N+](=O)[O-] (stereo unspecified) | inconclusive: 0.316 µM [inhibitor, full curve, poor fit]
COc1ccccc1NC(=O)Cn1cnc2sc(C)c(S(=O)(=O)N3CCCCC3)c2c1=O | inactive
O=C(Nc1nncs1)c1ccc(Br)c(S(=O)(=O)N2CCCC2)c1 | inconclusive: 20 µM [inhibitor, single point]
Cc1ccc(OCc2nc(C#N)c(NCc3ccco3)o2)cc1 | inactive
CC(C)C[C@@H](CN1CCC[C@@H]1CN1C(=S)NC[C@@H]1Cc1ccccc1)N1C[C@H](Cc2ccc(O)cc2)N(CC2CCCCCC2)C1=S | inconclusive: 8.91 µM [inhibitor, partial curve, poor fit]
